Data as given in the supplement of paper PMC10338343.
± gives the standard deviation. Over roughly 5,500 sequences, “pre-steady-state target cleavage rate” has its median near 0.1; the highest 2% begin near 0.64. This is a selection; strong and weak results do not stand in their true shares.

These sequences were tested on MIWI (PIWIL1) piRISC loaded with piRNA #2 (30 nt) (assay: pre-steady-state target cleavage rate (min^-1); MIWI and MILI are mouse PIWI proteins and EfPiwi is from a freshwater sponge; tags in brackets are library labels; higher = faster piRNA-guided slicing of the target). Settings: guide: piRNA #2 5'p-UUAGGUAACCCAGUAGAUCCAGAGGAAUUC; auxiliary factor: 500 nM mouse GTSF1.
Description: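 Cleave-'n-Seq: a library of target RNAs (target site embedded in constant flanks, ACAGCATTCCGCGTTAGTGATATCCG... 5' flank; DNA-blocked outside the site) at 0.1 nM was incubated with 1 nM active mouse MILI or MIWI piRISC (synthetic 5'-monophosphorylated piRNA guide) with or without 500 nM mouse GTSF1 at 33 °C for 1 min to 16 h. Uncleaved targets were sequenced and normalised to non-target controls, and the pooled three trials were fitted to a burst-and-steady-state model to give the pre-steady-state cleavage rate (min^-1; k3 is constrained to at most 1e-4). Sequence is the target site only; target names encode pairing extent (gX:gY) and contiguous / 1-mismatch / 2-mismatch / bulge geometry. Fits with R² ≤ 0 are excluded.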
For CUUAUCGUCUGGAUCUUCUGGGUUACCUAA, the “pre-steady-state target cleavage rate” value was 0.139 ± 0.032. CUAUUCCUGUGGAUCUACUCGGUUACCUAA was tested, and the “pre-steady-state target cleavage rate” value was 0.0779 ± 0.014. GAAUUCCACUGGUUCUACUGGGUUACCUAA was tested, and the “pre-steady-state target cleavage rate” value was 0.495 ± 0.04. For CUUAAGGUCUGGAUCUACUGGGGUACCUAA, the “pre-steady-state target cleavage rate” value was 0.052 ± 0.0096. With CAAUUCCACUGGAUCUACUGGGAUACCUAA the “pre-steady-state target cleavage rate” value was 0.455 ± 0.059. In the case of CUUAUCCUUUGGAUCUACUGGGUUACCUAA, the “pre-steady-state target cleavage rate” value is reported as 0.49 ± 0.041. For CUUAACCUCUGGAUCUACUGGCUUACCAAA, the “pre-steady-state target cleavage rate” value was 0.0497 ± 0.012. With CUAUUCCUCUGGAAGAACUGGGUUACCUAA the “pre-steady-state target cleavage rate” value was 0.16 ± 0.042. In the case of CUAUUGCUCUGGAUGUACUGGGUUACCUAA, the “pre-steady-state target cleavage rate” value is reported as 0.227 ± 0.026. CUUAUCCUCUGGAUCUACUGGAUUACCUAA was tested, and the “pre-steady-state target cleavage rate” value was 0.402 ± 0.049. CUUAUCCUCUGGAUCUACUCGGUUAGCUAA was tested, and the “pre-steady-state target cleavage rate” value was 0.0153 ± 0.008. In the case of CAUUUCCUCUGGAUCUUCUGGGUUACCUAA, the “pre-steady-state target cleavage rate” value is reported as 0.551 ± 0.067. In the case of CUUAUCCACUGGAUCUACUGGGUUUCCUAA, the “pre-steady-state target cleavage rate” value is reported as 0.371 ± 0.05. For CUUAAGCACUGGAUCUACUGGGUUACGUAA, the “pre-steady-state target cleavage rate” value was 0.458 ± 0.044. With CUUUUCUCUGGAUCUACUGGGUUACCUAA the “pre-steady-state target cleavage rate” value was 0.276 ± 0.046. With GAAUUCCUCAGGAUCUACUGGGUUACCUUA the “pre-steady-state target cleavage rate” value was 0.467 ± 0.061. With GAAAUCCUCUGCAUCUACUGGGUUACCUAA the “pre-steady-state target cleavage rate” value was 0.326 ± 0.038. In the case of CUUUUCCUCUGGAUCUACUGGGUUUGCUAA, the “pre-steady-state target cleavage rate” value is reported as 0.289 ± 0.045. In the case of CUUAAGCUCUGGAUCUACUGGGUUAACUAA, the “pre-steady-state target cleavage rate” value is reported as 0.381 ± 0.041. CUAUUCCUGUGGAUGUACUGGGUUACCUAA was tested, and the “pre-steady-state target cleavage rate” value was 0.459 ± 0.04. With “CUUAACCUCUGGAUCUACUGGGUUACCUAC [g2:g25:cont:t1C]” the “pre-steady-state target cleavage rate” value was 0.21 ± 0.025. In the case of “CUUAUCCUCUGGAUCUACUGGGUUACCUAA [g2:g26:cont:t1A]”, the “pre-steady-state target cleavage rate” value is reported as 0.414 ± 0.063. With CUUAACCUCACGAUCUACUGGGUUACCUAA the “pre-steady-state target cleavage rate” value was 0.284 ± 0.025. CUUAAGCUCUGGAUCUACGGGGUUACCUAA was tested, and the “pre-steady-state target cleavage rate” value was 0.032 ± 0.0074. CUUAAGCUCAGGAUCUACUCGGUUACCUAA was tested, and the “pre-steady-state target cleavage rate” value was 0.038 ± 0.013. With GAAUUCGUCUGGAUCUACUGCGUUACCUAA the “pre-steady-state target cleavage rate” value was 0.329 ± 0.041. With CUUAUCCUCUGGAUCUACUGGGUUACGAUA the “pre-steady-state target cleavage rate” value was 0.25 ± 0.048. With CUUUUCCUCUGGAUCUACUGGGUUAGGAAA the “pre-steady-state target cleavage rate” value was 0.00704 ± 0.0024. For CUUAAGGAGUGGAUCUACUGCGUUACCAAA, the “pre-steady-state target cleavage rate” value was 0.00817 ± 0.005. In the case of CUUAACGUGUGGAUCUACUGGGUUACCUAA, the “pre-steady-state target cleavage rate” value is reported as 0.282 ± 0.039. For CAAUUCCUCUGGAUCUACUGGGGUACCUAA, the “pre-steady-state target cleavage rate” value was 0.229 ± 0.057. With GAAUUCCUCUGGUUCUACUGGGUUAGCUAA the “pre-steady-state target cleavage rate” value was 0.495 ± 0.049. With “CUUAAGGACUGGAUCUACUGGGUUACCUAC [g2:g22:cont:t1C]” the “pre-steady-state target cleavage rate” value was 0.119 ± 0.05. With CAUUUGCUCUGGAUCUACUGGGUUACCUAA the “pre-steady-state target cleavage rate” value was 0.291 ± 0.041. In the case of CUUAUCCUCUCGAUCUAGUGGGUUACCUAA, the “pre-steady-state target cleavage rate” value is reported as 0.292 ± 0.021. For GAAUUCCUCUGGAUCUACUGGGUUACCUA, the “pre-steady-state target cleavage rate” value was 0.37 ± 0.07. With CUUAAGCUCUGGAUCUACUGGGUAACCUUA the “pre-steady-state target cleavage rate” value was 0.0535 ± 0.016. GAUUUCCUCUGCAUCUACUGGGUUACCUAA was tested, and the “pre-steady-state target cleavage rate” value was 0.269 ± 0.036. For CUUAUCCUGUGGAUCUACAGGGUUACCUAA, the “pre-steady-state target cleavage rate” value was 0.363 ± 0.028. For CUUUUCCUCUGGAUGUAGUGGGUUACCUAA, the “pre-steady-state target cleavage rate” value was 0.0917 ± 0.017. For GAAUUCCUCUGGAUCUACUGCCAUACCUAA, the “pre-steady-state target cleavage rate” value was 0.00422 ± 0.0027. CAAUUCCUCUGGAUCUACUGGCAUACCUAA was tested, and the “pre-steady-state target cleavage rate” value was 0.00973 ± 0.0052. With CAAUUCACUCUGGAUCUACUGGGUUACCUAA the “pre-steady-state target cleavage rate” value was 0.266 ± 0.049. In the case of CUUAUCCUCUGCGAUCUACUGGGUUACCUAA, the “pre-steady-state target cleavage rate” value is reported as 0.315 ± 0.03. With CUUAAGGUCUGGUUCUACAGGGUUACCUAA the “pre-steady-state target cleavage rate” value was 0.119 ± 0.011. In the case of CAAAUCCUCUGGAUCUACUGGGUUUCCUAA, the “pre-steady-state target cleavage rate” value is reported as 0.268 ± 0.042. In the case of GAAAUCCUGUGGAUCUACUGGGUUACCUAA, the “pre-steady-state target cleavage rate” value is reported as 0.278 ± 0.059. CUUUUCGUCUGGAUCUACUGGGUUAGCUAA was tested, and the “pre-steady-state target cleavage rate” value was 0.17 ± 0.044. With GAAUUCCUCUGGAUCUACUGCGGUUACCUAA the “pre-steady-state target cleavage rate” value was 0.00432 ± 0.0031. With CUUAAGGAGAGGAUCUACUGGGUUACCUGAA the “pre-steady-state target cleavage rate” value was 0.00519 ± 0.004. For CUUUUCGUCUGGAUCUACUGGGUUACCUAA, the “pre-steady-state target cleavage rate” value was 0.353 ± 0.046. For CUUAUCCUCUGGCAUCUACUGGGUUACCUAA, the “pre-steady-state target cleavage rate” value was 0.136 ± 0.038. For CAAUUCCUCUGGAUCUACUGGCUUUCCUAA, the “pre-steady-state target cleavage rate” value was 0.089 ± 0.028. For CUUAAGCUGAGGAUCUACUGGGUUACCUAA, the “pre-steady-state target cleavage rate” value was 0.0478 ± 0.0073. With CAAUUCCUCUGGAUGUAGUGGGUUACCUAA the “pre-steady-state target cleavage rate” value was 0.0865 ± 0.02. For GAAUUCCUCUGGAUCUACUGGGUUUCCUUA, the “pre-steady-state target cleavage rate” value was 0.309 ± 0.083. In the case of CUUUUCCUGUGGAUGUACUGGGUUACCUAA, the “pre-steady-state target cleavage rate” value is reported as 0.384 ± 0.035. For CAAUUCCUGUGGAUCUACUGGGUUAGCUAA, the “pre-steady-state target cleavage rate” value was 0.133 ± 0.044. With CAAUUCCUGUGGAUCUAGUGGGUUACCUAA the “pre-steady-state target cleavage rate” value was 0.16 ± 0.028. With CUUAAGGAGCGGAUCUACUGGGUUACCUAA the “pre-steady-state target cleavage rate” value was 0.0188 ± 0.013. With CUUAACCUCAGGAUCUACUGGGUAACCUAA the “pre-steady-state target cleavage rate” value was 0.117 ± 0.024. For GUAUUCCUCUGCAUCUACUGGGUUACCUAA, the “pre-steady-state target cleavage rate” value was 0.223 ± 0.068. In the case of CUUUUCCUCUGGAACAACUGGGUUACCUAA, the “pre-steady-state target cleavage rate” value is reported as 0.4 ± 0.037. With CAAUUCCUCUGGAUCUUCUGGGUUAGCUAA the “pre-steady-state target cleavage rate” value was 0.181 ± 0.061. CUUAAGCUCUGGAUCUACUGGGAUACGUAA was tested, and the “pre-steady-state target cleavage rate” value was 0.142 ± 0.022. CUUUUCCUCUGGAACUACUGGGUUACCUUA was tested, and the “pre-steady-state target cleavage rate” value was 0.247 ± 0.035. CUUUUCCUGUGGAUCUAGUGGGUUACCUAA was tested, and the “pre-steady-state target cleavage rate” value was 0.201 ± 0.017. For CUAUUCCUCUGGAUCAACAGGGUUACCUAA, the “pre-steady-state target cleavage rate” value was 0.21 ± 0.025. For CUUAACCUGUGGAUGUACUGGGUUACCUAA, the “pre-steady-state target cleavage rate” value was 0.373 ± 0.054. CUUUUCCUCUCGAUCUACUGGGUUACGUAA was tested, and the “pre-steady-state target cleavage rate” value was 0.746 ± 0.034. With CUUAAGCUGUGGAUCUACUGGGUUACGUAA the “pre-steady-state target cleavage rate” value was 0.324 ± 0.059.
